# From PubChem BioAssay AID894 (National Center for Advancing Translational Sciences (NCATS), 2007)
# “And” between values parts separate entries of the source, which are not always exact repeats. Equal entries are not always repeated. About 6,500 (4.3%) of roughly 150,000 compounds were called active. Inconclusive results, whose numbers are uncertain, are shown with a selection of clear calls. The call rests on the fitted dose curve; in most records, active means well fitted inhibition curve with a large enough effect (not every such curve was filed as active); inconclusive means small, poorly fitted or top-dose-only effect, or another doubt; inactive means no such curve, though single readings can be large or run the other way. Where the call is inconclusive, the potency comes from a doubtful curve fit.
# Molecular target: 15-hydroxyprostaglandin dehydrogenase [NAD(+)] (Homo sapiens) (UniProt P15428)
# Assay: qHTS Assay for Inhibitors of HPGD (15-Hydroxyprostaglandin Dehydrogenase)
# Conditions: purified HPGD, NADH fluorescence kinetic, PGE2 substrate; activity change, negative = inhibition: hits give low values
# Outline: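 NADH formation kinetics: reaction with 30 uM PGE2 and 1 mM NAD+ (final), 20 nM enzyme, Tris-HCl pH 8 with Tween 20, after 15 min compound preincubation at room temperature. Fluorescence change, last versus first of five reads.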
# On the % scale 0 is the no-effect control and ±100 the full control effect; potency means the concentration at half of the fitted maximal effect; tags describe the fitted curve by direction and shape.
# UniProt P15428, sequence (P15428 whole entry, looked up): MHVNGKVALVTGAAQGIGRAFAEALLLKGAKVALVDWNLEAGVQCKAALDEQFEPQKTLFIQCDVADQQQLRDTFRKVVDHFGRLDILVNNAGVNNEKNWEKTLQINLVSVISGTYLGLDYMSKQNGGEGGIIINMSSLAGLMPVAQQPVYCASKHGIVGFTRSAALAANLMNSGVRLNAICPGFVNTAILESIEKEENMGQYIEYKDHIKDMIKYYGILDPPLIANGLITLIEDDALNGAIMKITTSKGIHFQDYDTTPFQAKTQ
SMILES,Potency,"activity change, negative = inhibition"
O=C(c1ccc(CNS(=O)(=O)c2cccc(C(F)(F)F)c2)cc1)N1CCOCC1,active: 14.1 µM,
Cc1cccc(Nc2cc(C)c3c(O)cccc3n2)c1C,,inactive: -26.1%
CCCc1cc(=O)[nH]c(SCc2ccccc2)n1,active: 15.8 µM,
Cc1ccc(Cn2c(SCC(=O)NCC3CCCO3)nc3c(sc4ccccc43)c2=O)cc1 (stereo unspecified),"inconclusive: 28.2 µM [inhibitor, partial curve]",
Cc1cccc(N/N=C/c2ccccc2O)c1,"inconclusive: 39.8 µM [inhibitor, partial curve]",
COc1ccc(C(=O)Oc2ccc(C(=S)N3CCCC3)cc2)cc1OC,,inactive: -9.97%
COc1ccc(Cl)cc1-n1c(N)c(C(N)=O)sc1=S,active: 28.2 µM,
COc1ccc2nc(S(=O)Cc3ncc(C)c(OC)c3C)[nH]c2c1 (stereo unspecified),active: 28.2 µM,
COc1ccc(-c2cc(-c3cccs3)c(C#N)c(SCC(=O)NCc3ccccc3OC)n2)cc1,"inconclusive: 28.2 µM [inhibitor, partial curve]",
COc1cccc(/C=N\n2c(C)nnc2C)c1OC,,inactive: -20.7%
S=c1nc[nH]c2c1[nH]c1ccccc12,active: 25.1 µM,
CCOC(=O)c1c(-c2ccccc2Cl)csc1NC(=O)CSc1nc(C)cc(=O)[nH]1,active: 14.1 µM,
CCOC(=O)c1sc(NC(=O)CSc2nc3c(cc2C#N)CCCCC3)c(C#N)c1C,"inconclusive: 28.2 µM [inhibitor, partial curve]",
NNc1nc2c(Cl)cccc2s1,"inconclusive: 39.8 µM [inhibitor, single point]",
O=C(CNc1ccccc1-c1ccccc1)NCc1ccccc1,"inconclusive: 22.4 µM [inhibitor, partial curve, poor fit]",
Cc1ccc(NC(=O)c2cn(-c3cccc(C)n3)cn2)cc1,"inconclusive: 28.2 µM [inhibitor, partial curve]",
COc1ccc(-n2nnnc2SCc2nc3ccccc3s2)cc1,"inconclusive: 28.2 µM [inhibitor, partial curve]",
CCOC(=O)C1CCCc2c1[nH]c1c(C(=O)O)cccc21 (stereo unspecified),,inactive: -9.6%
COc1ccc(-c2cc(C(F)(F)F)nc(-n3ccnc3C)n2)cc1,"inconclusive: 28.2 µM [inhibitor, partial curve]",
COc1ccc(CCNC(=S)Nc2cccc(C)c2C)cc1,,inactive: -3.09%
CCN(CC)c1ccc(/C=N/Nc2nc(C)cc(=O)[nH]2)cc1,"inconclusive: 25.1 µM [inhibitor, partial curve]",
CCOC(=O)C1=C(C)NC(SCC(N)=O)=C(C#N)C1c1cccs1 (stereo unspecified),"inconclusive: 31.6 µM [inhibitor, partial curve]",
CCOC(=O)c1c(NC(=O)C2=C(C)NC(=S)NC2c2ccc(CC)cc2)sc(C)c1C (stereo unspecified),"inconclusive: 25.1 µM [inhibitor, single point]",

SMILES,Potency,"activity change, negative = inhibition"
Cc1nn(-c2ccccc2)c2ncc(C(=O)c3cc(Cl)ccc3O)cc12,active: 15.8 µM,
O=c1[nH]c2cc(Cl)c(Cl)cc2[nH]c1=O,"inconclusive: 35.5 µM [inhibitor, partial curve]",
Cc1ccc(OCC(=O)Sc2ccc(C)cc2)cc1,"inconclusive: 39.8 µM [inhibitor, single point]",
O=S(=O)(c1ccccc1)c1cnn2c(C(F)(F)F)cc(-c3ccccc3)nc12,"inconclusive: 31.6 µM [inhibitor, partial curve]",
COc1ccccc1N1CCN(C(=O)c2ccc(CSc3ccccc3)cc2)CC1,,inactive: -15.8%
O=C(COc1ccc2ccccc2c1)Nc1cccc(C(=O)Nc2ccccc2C(=O)O)c1,"inconclusive: 31.6 µM [inhibitor, single point]",
O=C(c1cccc(Br)c1)N1CCCC1,active: 17.8 µM,
CN1CCN(C(=O)CSc2nc(-c3cccs3)cc(-c3cccs3)c2C#N)CC1,"inconclusive: 0.794 µM [inhibitor, full curve]",
C=CCOc1c(Cl)cc(CNc2ccc(N(C)C)cc2)cc1OC,"inconclusive: 12.6 µM [inhibitor, partial curve]",
O=C(c1csc(Nc2ccccc2Cl)n1)N1CCCC1,active: 15.8 µM,
N#Cc1cc2c([nH]c1=S)CCCC2,active: 14.1 µM,
Cc1ccc(S(=O)(=O)NC(=O)c2ccc(-c3ccc(-c4ccccc4)cc3)o2)c(C)c1,"inconclusive: 22.4 µM [inhibitor, partial curve]",
COc1ccc(-n2c(C)c(C(C)=O)c3cc(O)ccc32)cc1,active: 3.98 µM,
CCOc1cc(-c2cc(-c3ccccc3)nc(N)c2C#N)ccc1O,"inconclusive: 25.1 µM [inhibitor, partial curve]",
O=C(CCc1ccc(S(=O)(=O)N2CCOCC2)cc1)Nc1nc(COc2ccccc2)cs1,,inactive: -14.8%
Cc1cc2nc(C)n(CCCNC(=O)Nc3cccc4ccccc34)c2cc1C,,inactive: -15.3%
C=C(C)Cn1c(COc2ccccc2)nnc1SCC(=O)O,,inactive: -3.34%
Cc1cc(NC(=O)CSc2ccc3nnc(-c4ccccn4)n3n2)no1,"inconclusive: 31.6 µM [inhibitor, partial curve]",
CCOc1ccc(C(C)=O)cc1N1C(=O)C2C3C=CC(C3)C2C1=O (stereo unspecified),,inactive: -0.0194%
O=C(c1ccc(C(=O)N2CCCc3ccccc32)s1)N1CCCc2ccccc21,"inconclusive: 25.1 µM [inhibitor, partial curve]",
CCCCOc1ccc(C2C3CN(C(=O)OCC)CC=C3C(C#N)=C(N)C2(C#N)C#N)cc1OC (stereo unspecified),"inconclusive: 15.8 µM [inhibitor, partial curve]",
N=c1c(C(=O)NCc2ccc(F)cc2)cc2c(=O)n3ccccc3nc2n1CCCN1CCOCC1,"inconclusive: 25.1 µM [inhibitor, partial curve]",
Cn1c(N)c(C(=O)COC(=O)c2cc(-c3ccco3)nc3ccccc23)c(=O)n(C)c1=O,"inconclusive: 15.8 µM [inhibitor, partial curve] and inconclusive: 28.2 µM [inhibitor, partial curve]",
